ChEMBL document CHEMBL4888484, “Replenishing the malaria drug discovery pipeline: Screening and hit evaluation of the MMV Hit Generation Library 1 (HGL1) against asexual blood stage Plasmodium falciparum ,using a nano luciferase reporter read-out” (2022)
Screen size: about 150,000 compounds; about 540 (0.36%) showed an effect of 50% or more. This is one part of the list.

tested on: Plasmodium falciparum; assay: Primary screen in NF54 nanoGlo assay, in single point, at 2uM, 72h; a lower Z score goes with more inhibition; format: functional, Erythrocyte; conditions: timepoint 72 hour

Compound	% Inhibition	Z score
COc1ccc(F)c(CN(C)CCc2ccncc2)c1	13%	-1.6
Cc1nc(CN2CCOc3cc(Br)c(Cl)cc32)oc1C	-6%	0.83
COc1ccc(-c2cc(C(=O)N3CC[C@H](c4nc(C)no4)C3)[nH]n2)cc1	-20%	2.36
COCCNS(=O)(=O)c1cc(C(=O)N2CCCC2)cs1	-6%	0.62
CCc1nc2cc(C(=O)NCC3CCN(CCO)CC3)cc(NC(=O)c3ccccc3OC)c2n1C	-3%	0.39
N#Cc1c2n(c(=O)n(Cc3noc(-c4ccco4)n3)c1=O)CCC2	-9%	1.3
O=C(NCc1cc(Cl)ccc1Cl)N1CCC(O)(CN2CCCC2)CC1	-12%	1.26
CN1C[C@@H](CN(C)C(=O)NCc2ccc3sccc3c2)CC1=O	-4%	0.63
Cc1nc([C@H](C)NC(=O)Cc2c(C)noc2C)n[nH]1	-12%	1.2
CCn1nc(C)c(-c2cc(C(=O)N3CC4(C3)C[C@@](O)(CC)CO4)no2)c1C	-12%	1.81
Cc1nn(-c2ccccc2)c2sc(-c3noc(C4CC4)n3)cc12	14%	-1.59
N#Cc1nccnc1NCCNc1ncc(Cl)cc1Cl	-10%	1.59
Cc1nn(C)c2cc(NC(=O)N3CCOCC3C3CCCO3)ccc12 (stereo not drawn)	-11%	1.24
CS(=O)(=O)c1ccc(-c2noc(C3CC4CCC3C4)n2)cc1 (stereo not drawn)	0%	0.06
N#Cc1c(N)c(C(=O)c2ccc(F)cc2)n2c1CCCC2	-4%	0.76
CCOC(=O)C1CCN(C(=O)Nc2ccc(NC(=O)N3CCC(C(=O)OCC)CC3)cc2)CC1	44%	-5.67
Cc1noc2ncnc(NC[C@H](C)Oc3cccc(F)c3)c12	0%	0.07
CCCc1nc(N2CCN(C(=O)c3ccccc3OC)CC2)c2c(-c3cccc(C(F)(F)F)c3)noc2n1	-1%	0.19
COc1ccc(CN(C(=O)C2CCC2)C2CCCC2)cc1OC(C)C	-5%	1.06
CCCCNC(=O)C(=O)NCc1ccc(OC)cc1	-6%	0.75
c1nc([C@H]2CCCNC2)n(-c2ccc3c(c2)CCC3)n1	-11%	1.36
Cc1ccc(NC2CCN(C)CC2)cc1NC(=O)CCCOc1ccccc1F	-8%	0.99
Cc1cccc([C@H]2CCCN(C(=O)NCc3cn4cccc(C)c4n3)C2)c1	10%	-1.32
O=C(Nc1ccc2c(c1)OCCCO2)c1ccoc1	-10%	1.13
Cc1ncsc1C(=O)N1CCC(c2ncon2)CC1	-6%	0.96
Cc1ccc(NC(=O)Cn2c(C)cc(=O)n3nc(-c4ccccc4C)nc23)cc1C	-10%	1.28
c1ccc2c(N3CCN(C[C@H]4CCOC4)CC3)nncc2c1	-5%	0.91

Compound	% Inhibition	Z score
CCOc1nnc(Cn2cnc3c2c(=O)n(C)c(=O)n3C)s1	-13%	2.15
O=C(Cc1cccnc1)NCc1cc(N2CCOCC2)ncn1	4%	-0.76
Cn1cnnc1CCC(=O)N[C@@H]1[C@H]2CCO[C@H]2[C@H]1Cc1ccccc1	-5%	0.84
COCCCN1CC(=O)N[C@@H]2CN(C(=O)c3ccc(F)c(O)c3)CC[C@@H]2OCc2cccc(c2)Oc2ccc(cc2OC)CCC1=O	2%	-0.41
CC(=O)c1cccc(Oc2nc3ccccc3o2)c1	-3%	0.53
CCc1nc([C@H](N)CO)n(-c2ccc3ccccc3c2)n1	-11%	1.47
O=C(OCC(=O)N1CCCc2ccccc21)c1nccc2ccccc12	35%	-4.68
O=C(C1CCCO1)N1CCCC2CCCC21 (stereo not drawn)	-7%	1.03
CCCC(CCC)N1CCC[C@H](c2nnc(CN3CCOCC3)n2C)C1	-13%	1.51
O=S1(=O)C=C[C@@H](N(c2ccccc2)S(=O)(=O)c2ccc(Cl)cc2)C1	5%	-0.61
O=C(NC[C@H]1CCN(CCN2CCOCC2)C1)Nc1cccnc1	-1%	0.27
Nc1c2c(-c3ccccc3)nc(NCc3ccc(F)cc3)nc2nn1-c1ccc(Cl)cc1	-11%	1.21
O=C1CCC(=O)N1OCCOc1ccccc1	-13%	1.59
COc1cccc(CN2CCN3C(=O)N(Cc4ccc(C)cc4)C[C@H]3C2)n1	15%	-1.71
CC[C@H](C)N(C)C(=O)Nc1ccc(Cl)cc1	1%	-0.12
COc1c[nH]c(C(=O)NCc2cccnc2)cc1=O	1%	-0.2
C[C@@H](C(=O)NC(N)=O)N1CCC(c2nc3c(s2)CCCC3)CC1	-11%	1.45
CC(C)N1CCN(C2CCN(S(=O)(=O)c3ccccc3N)CC2)CC1	-17%	1.55
CC(C)(C)c1cn2c(n1)[C@@H](CN)CCC2	-3%	0.31
Cc1noc(C)c1S(=O)(=O)N[C@H]1CCc2nc(N(C)C)ncc2C1	21%	-2.76
O=C(Nc1cccc(Br)c1)c1coc(NC(=O)c2cnccn2)n1	12%	-1.58
CCn1cc(C(=O)N2CCCN(CC3CCC3)CC2)nn1	-2%	0.21
O=C(NCCC1(O)CCOCC1)[C@H]1C2CCC(CC2)[C@@H]1C(F)(F)F	-4%	0.77
O=C(NCCCc1ccccc1)N1Cc2cncnc2C1	-16%	2.73
COc1ccccc1OCCN1C[C@@H](C(=O)Nc2ccc3[nH]c(C)nc3c2)CC1=O	-9%	1.11
Cc1nc2c(c(N3CCCC3)n1)CCN(C(=O)c1cc3sccc3[nH]1)C2	-6%	1.09
CCCOC(=O)[C@@](C)(NC(C)=O)C1CC1	-11%	2.14
